Experimental data from the BET-seq Pho4 binding data (Le et al. 2018).
The other results are listed elsewhere or left out. Values were computed here from the reads of four pooled replicates and scatter widely.

Each sequence was assayed against T1, Pho4 (S. cerevisiae) (UniProt P07270) (assay: relative binding free energy (BET-seq); higher = weaker binding). Conditions: reference: library average.
T1 sequence: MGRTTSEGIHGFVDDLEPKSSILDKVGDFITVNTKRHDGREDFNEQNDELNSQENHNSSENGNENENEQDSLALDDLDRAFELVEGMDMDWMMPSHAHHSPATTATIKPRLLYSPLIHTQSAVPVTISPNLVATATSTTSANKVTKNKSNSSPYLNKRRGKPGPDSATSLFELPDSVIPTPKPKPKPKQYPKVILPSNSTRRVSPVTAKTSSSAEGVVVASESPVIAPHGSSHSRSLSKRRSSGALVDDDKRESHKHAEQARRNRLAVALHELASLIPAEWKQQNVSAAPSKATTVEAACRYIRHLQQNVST

Relative binding free energy, 0.5 kcal/mol:
GAATTCACGTGTAGAA

Relative binding free energy, -0.03 kcal/mol:
ATGGTCACGTGCTTTA
TGATACACGTGCGGTA
GTGTCCACGTGTTTAT
TAGTGCACGTGATGAG

Relative binding free energy, 0.11 kcal/mol:
GTTTACACGTGCGATG
CAAGTCACGTGTTGGA
TTCGCCACGTGGTTAT

Relative binding free energy, -0.28 kcal/mol:
CTGAGCACGTGGGTGG

Relative binding free energy, 0.29 kcal/mol:
GTTTTCACGTGTTTCT
TGTTTCACGTGGTGGC
GCGTTCACGTGTGTTC
GGCAGCACGTGAATGG

Relative binding free energy, 0.02 kcal/mol:
TTTGACACGTGCGCAT
TTTGTCACGTGGCCAG
TACGTCACGTGGTTGA
CGGGACACGTGTGTGG
GTGTGCACGTGGTTCT
GTTAGCACGTGTGTCG
CGGGGCACGTGACGTG
CATGACACGTGTGGGA
AATAACACGTGGAGGG

Relative binding free energy, 0.14 kcal/mol:
GTGGTCACGTGGTCAG
GATGACACGTGTTGGA

Relative binding free energy, -0.26 kcal/mol:
TCGGCCACGTGGGGGG

Relative binding free energy, 0.37 kcal/mol:
TTGCTCACGTGAGTAG

Relative binding free energy, 0.4 kcal/mol:
GGTTTCACGTGGGAGT

Relative binding free energy, -0.07 kcal/mol:
GATGGCACGTGGTTTG
TAGGTCACGTGGCTGA
CAAGTCACGTGGGTGG

Relative binding free energy, -0.11 kcal/mol:
TGGTCCACGTGGGTTT
GTGGGCACGTGCTTGC
TGCAGCACGTGTGGGC
TCAGTCACGTGGGGGG
TGGAGCACGTGTGTAC
AGCGTCACGTGGGGAT
GGGGACACGTGGCTAG
GAGGCCACGTGGGGTC

Relative binding free energy, -0.13 kcal/mol:
ATGGCCACGTGGTGGG
GTTAGCACGTGGGTGG
GGCAGCACGTGGGGGG
TCAGGCACGTGTCTGG

Relative binding free energy, 0.01 kcal/mol:
ATGGTCACGTGCGTGT
TGAGACACGTGGAGGT

Relative binding free energy, -0.3 kcal/mol:
GTGCGCACGTGGTAGG

Relative binding free energy, 0.2 kcal/mol:
TTGGTCACGTGTCAGG
GCGTTCACGTGGGCGT
TTTATCACGTGGAATA
TGTTCCACGTGAGCGT
TTTGGCACGTGAATGG

Relative binding free energy, 0.19 kcal/mol:
TTTCTCACGTGGGCGA
TTAAGCACGTGAATTG
TGGAACACGTGAGAGT
AATTACACGTGTGGGG
GTGTTCACGTGTTATA
GGTTACACGTGGAGGA
ATTATCACGTGCTTGT
CACATCACGTGTTGGT

Relative binding free energy, 0.33 kcal/mol:
TGCCTCACGTGTTAGT

Relative binding free energy, -0.17 kcal/mol:
ATGACCACGTGTGGTG

Relative binding free energy, -0.4 kcal/mol:
TGCAGCACGTGGGGGT

Relative binding free energy, 0.34 kcal/mol:
GGGTGCACGTGAGTCG

Relative binding free energy, 0.21 kcal/mol:
TGAGTCACGTGCTGGA
GAGGTCACGTGTATGG
AATTGCACGTGATGGG
TCTTTCACGTGACGTT

Relative binding free energy, -0.1 kcal/mol:
ATGGTCACGTGGTCAT
AATGACACGTGGGAGG
GTAAGCACGTGTTTAT

Relative binding free energy, 0.17 kcal/mol:
GGTTCCACGTGTGGCG
GGTGACACGTGATGTT
AAGTGCACGTGACGGG
ATCTGCACGTGTGGTC
GTGTGCACGTGAGGTC
TAATTCACGTGGTCAG
GCAATCACGTGTTTGT
GCTTGCACGTGATTTT

Relative binding free energy, 0.23 kcal/mol:
TGTGACACGTGAACGG
GGGTGCACGTGACGGG
GGGTGCACGTGATGAT
TCCATCACGTGGTGTG
GTGAGCACGTGAAGAG
GTGGTCACGTGTCTTC

Relative binding free energy, -0.23 kcal/mol:
AGGAGCACGTGGGTAA
TTTGGCACGTGGGTCC
ATCAGCACGTGGGATG

Relative binding free energy, -0.04 kcal/mol:
TGATCCACGTGTTAGG
GGGCGCACGTGTTGTA

Relative binding free energy, 0.28 kcal/mol:
GTTTTCACGTGGGTGA
TAATTCACGTGTTTAT
GATTGCACGTGAGAGG

Relative binding free energy, -0.06 kcal/mol:
CTGGGCACGTGATTAT
AGTTGCACGTGGACGG
GGCAGCACGTGTGGGA
TGTGACACGTGCTGGG

Relative binding free energy, -0.12 kcal/mol:
GAGTGCACGTGGGACG
AAGCGCACGTGCGGGA
AGAAGCACGTGGGAGT

Relative binding free energy, -0.24 kcal/mol:
GCGAGCACGTGGCGGG
CTAGGCACGTGCGTTG

Relative binding free energy, 0.35 kcal/mol:
ACTTTCACGTGTACGG
CTTTTCACGTGAGTAA

Relative binding free energy, 0.03 kcal/mol:
TTTGGCACGTGTCGAT
GAGAGCACGTGTTATT
GGTGACACGTGTTCAT
GGCTACACGTGGAGGG
TGGACCACGTGTGGAT

Relative binding free energy, 0.08 kcal/mol:
TAGAGCACGTGAGGCG
ATGGTCACGTGGTCGT
CGGTACACGTGTGGGA
TGTGGCACGTGAGTGT
CAGAGCACGTGTGAGT
TGGCACACGTGTGCGG

Relative binding free energy, -0.02 kcal/mol:
TGTCGCACGTGCGGCT
TTGGGCACGTGCTAAG

Relative binding free energy, -0.15 kcal/mol:
ATTGACACGTGGCTGT
TGTCGCACGTGGTGAA
ATACGCACGTGGGAGG
TGTTGCACGTGGTATA

Relative binding free energy, 0.32 kcal/mol:
TGGTACACGTGGACGA

Relative binding free energy, 0.24 kcal/mol:
TATTGCACGTGAATTG
TCGTGCACGTGAGGAT
GGCGTCACGTGAGCTT

Relative binding free energy, -0.18 kcal/mol:
CTTGGCACGTGGGTGA
TCAGGCACGTGGGGAT
GCTGGCACGTGGGCAT
AGGGGCACGTGGACGC
AAGGCCACGTGGTCGG

Relative binding free energy, -0.09 kcal/mol:
GCGTGCACGTGTGGCT
GGTGGCACGTGGGAGT
TGAGCCACGTGTGCGT
AGCTGCACGTGTAGGG
TATTGCACGTGCTTTT
AATAACACGTGGGGGT

Relative binding free energy, 0.1 kcal/mol:
TTTGTCACGTGTCACG
ATTATCACGTGGTGGG
GAAGGCACGTGGCAAT
TTCTACACGTGTATGT
TTTGACACGTGCAGTT
AGGTACACGTGTGGTA
GGTTGCACGTGTTGGC
TCTGTCACGTGTGAGG
CGCATCACGTGGTGGG
GGAATCACGTGCGGTT
AAAATCACGTGGGGAT

Relative binding free energy, 0.15 kcal/mol:
GGAAGCACGTGAGATT
GTCATCACGTGTGTTT
TTTGTCACGTGTGGAA
GGTATCACGTGTTAGA

Relative binding free energy, 0.31 kcal/mol:
AAATTCACGTGATTAT
AAGGACACGTGAGGAT

Relative binding free energy, 0.18 kcal/mol:
ATTAACACGTGAGGGG
TTTGCCACGTGATTGA
CGGAGCACGTGAGGCG
ACTTACACGTGGTGGG

Relative binding free energy, 0.06 kcal/mol:
TGCAGCACGTGTCGGT
TTGGACACGTGGAGGC
GTGTGCACGTGGGAAA
GTATGCACGTGGAGAG
GGTAACACGTGTGGTT
GGTGGCACGTGACTTT
TCTTGCACGTGTTTTA
TGAAACACGTGGATGA
ATTGTCACGTGCGATA
CGGTGCACGTGTTAAG

Relative binding free energy, -0.16 kcal/mol:
TTTTGCACGTGCCTGG
GTGGGCACGTGCCTTG
TTTAACACGTGGGGTT
ATTCGCACGTGGGTGT

Relative binding free energy, 0.3 kcal/mol:
TTTTTCACGTGGGATC
TTGGTCACGTGAGGCC
ATTTTCACGTGCGAGA

Relative binding free energy, 0 kcal/mol:
GGACGCACGTGTTGAG
TGTCGCACGTGTTTGG

Relative binding free energy, 0.22 kcal/mol:
CTGGTCACGTGGACTG
GGCTTCACGTGGTAGA

Relative binding free energy, 0.13 kcal/mol:
TTTTACACGTGGTATT
TATTCCACGTGGTTCG
GGAGTCACGTGGAGCT
GTGTGCACGTGTTGAT
AAAGTCACGTGAGAGT

Relative binding free energy, -0.19 kcal/mol:
GTGACCACGTGGGTTA
AATGGCACGTGGCTTT

Relative binding free energy, 0.05 kcal/mol:
TTTTCCACGTGTGGGT
TCGGTCACGTGGTGGA
TAGAGCACGTGAGGGT
GGATGCACGTGTCAGG
GGATACACGTGTGTCG

Relative binding free energy, -0.05 kcal/mol:
TAGTGCACGTGCGGGG
ATTGACACGTGGCGGA
GCGGGCACGTGGAATG
TTAAGCACGTGTAATT
TTTAGCACGTGGAGTA
GGTAGCACGTGCTTGT
ATATACACGTGTTTTA
TACGGCACGTGGTCGG
GATAACACGTGGGCGT

Relative binding free energy, 0.26 kcal/mol:
TTCTTCACGTGCATTG
ATATTCACGTGAGTGA
AATCTCACGTGCGGTT
GTTCTCACGTGGTTAA
GAATTCACGTGTAGTT

Relative binding free energy, 0.25 kcal/mol:
GAAGTCACGTGTAGGA

Relative binding free energy, 0.16 kcal/mol:
TGGGCCACGTGATTAT
TGCATCACGTGTGCGT

Relative binding free energy, 0.04 kcal/mol:
CGGGACACGTGTTTGG
GGGTACACGTGGAGTT
GGTTGCACGTGTGGCT
AGCTACACGTGTAGGT

Relative binding free energy, 0.47 kcal/mol:
GGATTCACGTGAGATT
GATATCACGTGAGGGC

Relative binding free energy, 0.27 kcal/mol:
GGGTTCACGTGGTTAT
CTGTTCACGTGATAGT
TAGTCCACGTGATTGA

Relative binding free energy, -0.01 kcal/mol:
GGTGGCACGTGATATA
AGATGCACGTGTGGGA
GTGTGCACGTGACAGT
TAGGTCACGTGGTCTG
CACGTCACGTGGTTGG
GTTCGCACGTGTGTGT

Relative binding free energy, -0.25 kcal/mol:
GGAGACACGTGGGTTA

Relative binding free energy, -0.08 kcal/mol:
TTGGCCACGTGGAGAG

Relative binding free energy, 0.09 kcal/mol:
ATTAGCACGTGAGAGA
TGATTCACGTGGGGTA
CTTGTCACGTGGAATG

Relative binding free energy, 0.12 kcal/mol:
ATTCTCACGTGTTGAT
TTGAACACGTGACGGG
GAGAACACGTGTTGGA

Relative binding free energy, -0.21 kcal/mol:
CGAGGCACGTGGGCTG
TGGGCCACGTGGTATT
